Consider 15 compounds from patent US9284335B2, “Substituted pyrido[3,2-e][1,2,4]triazolo[1,5-c]pyrimidines, pyrido[2,3-e][1,2,4]triazolo[1,5-c]pyrimidines and/or [1,2,4]triazolo[1,5-c]pteridines for treatment of central nervous system diseases and disorders” (DART NEUROSCIENCE (CAYMAN) LTD., priority 2012, dated 2016).

In the assay the target is full-length recombinant NH-terminal GST tagged human PDE1b enzyme (Homo sapiens, UniProt Q01064). Kind of assay: PDE1b inhibitory assay (IMAP TR-FRET). The class given is biochemical. As to conditions: negative log of half-maximal molar inhibitory concentration; FAM-cAMP 200 nM; reported as bins; read-out: PDE1b (pEC50) (converted). Background: In TR-FRET formats the signal depends on donor and acceptor labels being close together.

For the compound `C[C@@H]1CN(Cc2cnc3c(c2)c2ncnn2c(=O)n3Cc2ccc(-n3cccn3)cc2)C[C@H](C)O1` [Example 105], the EC50 was over 10000 nM.
With `COc1ccc(Cn2c(=O)n3ncnc3c3cc(CN4CCCOCC4)cnc32)cc1` [Example 49, 9-((1,4-Oxazepan-4-yl)methyl)-6-(4-methoxybenzyl)pyrido[3,2-e][1,2,4]triazolo[1,5-c]pyrimidin-5(6H)-one], the EC50 was 100 to 1000 nM.
In the case of `C[C@@H]1CN(Cc2cnc3c(c2)c2ncnn2c(=O)n3Cc2ccc3c(c2)OCO3)C[C@H](C)O1` [Example 161], the EC50 is under 100 nM.
The result for `COc1ccc(Cn2c(=O)n3ncnc3c3ncc(CN4CCN(C)CC4)cc32)cc1` [Example 56] reads 1000 to 10000 nM; that for `C[C@@H]1CN(Cc2cnc3c(c2)c2ncnn2c(=O)n3Cc2cccc(I)c2)C[C@H](C)O1` [Example 100, 9-(((2S,6R)-2,6-Dimethylmorpholino)methyl)-6-(3-iodobenzyl)pyrido[3,2-e][1,2,4]triazolo[1,5-c]pyrimidin-5(6H)-one], 100 to 1000 nM; that for `COc1ccc(Cn2c(=O)n3ncnc3c3ccc(CN4Cc5ccccc5C4)nc32)cc1` [Example 80, 8-(Isoindolin-2-ylmethyl)-6-(4-methoxybenzyl)pyrido[3,2-e][1,2,4]triazolo[1,5-c]pyrimidin-5(6H)-one], 100 to 1000 nM.
With `COc1ccc(Cn2c(=O)n3ncnc3c3cc(CN(C)C)cnc32)cc1` [Example 35, 9-((Dimethylamino)methyl)-6-(4-methoxybenzyl)pyrido[3,2-e][1,2,4]triazolo[1,5-c]pyrimidin-5(6H)-one] the figure was 1000 to 10000 nM; with `C[C@@H]1CN(Cc2cnc3c(c2)c2ncnn2c(=O)n3Cc2ccccc2OC(F)F)C[C@H](C)O1` [Example 113], over 10000 nM.
For the compound `COc1ccc(Cn2c(=O)n3ncnc3c3cc(C(F)CN4CCOCC4)cnc32)cc1` (stereo not drawn) [Example 85, 9-(1-Fluoro-2-morpholinoethyl)-6-(4-methoxybenzyl)pyrido[3,2-e][1,2,4]triazolo[1,5-c]pyrimidin-5(6H)-one], the EC50 was 100 to 1000 nM.
In the case of `COc1ccc(Cn2c(=O)n3ncnc3c3cc(CN4CCN(C(C)C)CC4)cnc32)c(F)c1F` [Example 122, 6-(2,3-Difluoro-4-methoxybenzyl)-9-((4-isopropylpiperazin-1-yl)methyl)pyrido[3,2-e][1,2,4]triazolo[1,5-c]pyrimidin-5(6H)-one], the EC50 was 1000 to 10000 nM.
On to `C=C(OCC)c1cnc2c(c1)c1ncnn1c(=O)n2Cc1ccc(OC)cc1` [Example 32, 9-(1-Ethoxyvinyl)-6-(4-methoxybenzyl)pyrido[3,2-e][1,2,4]triazolo[1,5-c]pyrimidin-5(6H)-one], for which the EC50 is 100 to 1000 nM.
Turning to `COc1ccc(Cn2c(=O)n3ncnc3c3cc(CN4CCNCC4)cnc32)cc1` [Example 65, 6-(4-Methoxybenzyl)-9-(piperazin-1-ylmethyl)pyrido[3,2-e][1,2,4]triazolo[1,5-c]pyrimidin-5(6H)-one], the EC50 was 1000 to 10000 nM.
Take `COc1ccc(Cn2c(=O)n3ncnc3c3cc(N4CCC(N(C)C)CC4)cnc32)cc1` [Example 15, 9-(4-(Dimethylamino)piperidin-1-yl)-6-(4-methoxybenzyl)pyrido[3,2-e][1,2,4]triazolo[1,5-c]pyrimidin-5(6H)-one]: the EC50 was 100 to 1000 nM.
For the compound `COc1ccc(Cn2c(=O)n3ncnc3c3cc(CN(C)C4CCOCC4)cnc32)cc1` [Example 53, 6-(4-Methoxybenzyl)-9-((methyl(tetrahydro-2H-pyran-4-yl)amino)methyl)pyrido[3,2-e][1,2,4]triazolo[1,5-c]pyrimidin-5(6H)-one], the EC50 was 1000 to 10000 nM.
As to `COc1ccc(Cn2c(=O)n3ncnc3c3cc(-c4ccc(OC)c(OC)c4)cnc32)cc1` [Example 5, 9-(3,4-Dimethoxyphenyl)-6-(4-methoxybenzyl)pyrido[3,2-e][1,2,4]triazolo[1,5-c]pyrimidin-5(6H)-one], the EC50 was under 100 nM.
